To fix the notation:
B1: LINE1-mini (parent)
chain: GGCAGAGCUCAACACAGCGUGGCAAAGUGGCUGUGGCUAGACUGCC

Read counts are not given, so values of variants with three or more changes are uncertain.

Variants of B1 are the subject of this series. Kind of series: self-cleavage, relative activity (ratio to wild type); higher = more cleavage; in vitro, sequencing; the parent is a self-cleaving ribozyme.
Consider GGCAAAGCUCAACACAGCAUGGCAAAGUAGCUGUGGCUAGACUGCC, for which the self-cleavage was 0.09.

GGCACCGCUCAACACAGCGUGGCAAAGUCGCUGUGGCUAGACUGCC: the self-cleavage is 0.05.

On to GGCAAAGCUCAACACAGCGUGGCAAAGUGCCUGUGGCUUCACUGCC, for which the self-cleavage came out at 0.03.

Regarding GGCACCGCUCAACACAGCGUGGCAAAGUGGGUGUGGCUAGACUGCC, the self-cleavage is 0.05.

On to GGCAAAGCUCAACACAGCGUGUCAAAGUGGCUGUGCCUAGACUGCC, for which the self-cleavage is 0.02.

Regarding GGCACGGCUCAACACAGCGUGGCAAAGUGGCAAUGGCUAGACUGCC, the self-cleavage was 0.03.

In the case of GGCAAAGCUCAACACACCGUGCCAAAGUGGCCGGGGCUAGACGGCC, the self-cleavage worked out at 0.02.

With GGCAAAGCUCAACACAGCGUGGCAAAGUGGCUGUGUCUAGACUCCC, the self-cleavage stood at 0.13.

With GGCAAAGCAUAACACAGCGUGGCAACGUGGCUGUGGCUAGACUGCC, the self-cleavage was 0.01.

For GGCACCGCUCAACACAGCGUGGCAAAGUGGUUCUGGCUAGACUGCC, the self-cleavage was 0.06.

For GGCAAAACUAAACACAGGGGUGCAAAGCGGCUGUGGCUAGACAGCC, the self-cleavage was found to be 0.01.

On to GGCAAAGCUCAACACAGCGUGUCAAAGUGGCCGUGGCUAGACUGCC, for which the self-cleavage turned out to be 0.09.

As to GGCAAAGCUCAACACAGCGUUGCAAAGUGGCUGUGGCUAGAAUGCC, the self-cleavage is 0.26.

Consider GGCAAAGCUCAACACAGCAUGGCAAAGUGGCUGUGGCUAGACUGCA, for which the self-cleavage amounted to 0.05.

Regarding GGCACGGCUCAACACAGCGAGGCAAAGAGUCUGUGGCUAGACUGCC, the self-cleavage was found to be 0.03.

Consider GGCAAACCUCAACACAGCGCGGCAAAGUGGUUGUGGCUAGACUGCC, for which the self-cleavage turned out to be 0.01.

As for GGCAAAACUCAACACAGAGUGGCAAAGUGGCUGUGGCUAGACUGCC, the self-cleavage amounted to 0.52.

Consider GGCAAAGCUCAACACAGCCUGGCAAAGUGACUGUGGGUAGACUGCC, for which the self-cleavage was 0.

Regarding GGCAAAGCGCAACACAGCCUGGCAAAGUGACUGUGGCUAGACUGCU, the self-cleavage stood at 0.08.

In the case of GGCAAAGCUCAACACAGCGUGGGUAAGUGGCUGUGGCAUGACCGCC, the self-cleavage turned out to be 0.03.

Take GGCAAAGCUCAACACAGCGCAGCAAAGUGCCUGUGGCUACACUGCC: the self-cleavage amounted to 0.

For the variant GGCAAAGCUCAACACAGCGUGGCAAAGUGGCUGUAGCUAGAGUGCC, the self-cleavage was 0.09.

Consider GGCAAAGCUCAACACAACGUGGCAAAGUGGCUGUGGCUACACUGCC, for which the self-cleavage amounted to 0.03.

For the variant GGCACGGCUCAACACAGCGUGGCAAAGUGGCUGUGGCUCGACCGCC, the self-cleavage was determined as 0.04.

GGCAAAGCUCAACACAGCGUGGCAAAGUGGCUGUGGCGAUACUGCC: the self-cleavage came to 0.13.

For the variant GGCAAAGCUCAACACAACGUGGCAAAGUGGCUGUGGCCAGAAUGUC, the self-cleavage is 0.

For the variant GGCAAAACUCAACACAGCGUGGCAAAGUGGCUUUGGCUAGACUGCC, the self-cleavage came out at 0.05.

As for GGCAAAGCUCAACACAGCGUGUCAAAGUGGCCUUGGCUAGAUUGCC, the self-cleavage came to 0.03.

On to GGCAAAGCUCAACACAGCGUAGUAAAGUGGAUGUGGCUAGACUGCC, for which the self-cleavage stood at 0.1.

GGCAAAGCUCAACACAGCGUGGCAAAUUGGCUGUGGAUAGACUGCC: the self-cleavage came to 0.65.

Take GGCAAAGCACAACACUGCGUGGCAAAGUGGCUGUGGCUAGACUGGU: the self-cleavage worked out at 0.2.

GGCAAAGCUCAACACAACGUGGCAAAGUGGCAGAAGCUAGACUGCC: the self-cleavage was 0.05.

Take GGCAAAGCUCAACACAGCGUGGCAAAGUGGCUGUGGAUUGACUGCC: the self-cleavage was found to be 0.06.

Take GGCAAAGCUCAACACAACGCGGCAAAGUGGCUGUGGCUAUACUGCC: the self-cleavage was 0.05.

Regarding GGCAAAGCUCAACACAGCGUGGCAAAGCGGCUGUGGCUCGGCUGCA, the self-cleavage was 0.1.

As for GGCAAAGCUCAACACAGCGUGACAAAUUGGCUGUGGCUAGACUGCC, the self-cleavage stood at 0.18.

As for GGCACAGCUCCACACGGCGUGGCAAAGUGGCUGGGGCUAGACUGCC, the self-cleavage was determined as 0.02.

In the case of GGCAAAGCUCAACACAGCGUCGCAAAGUGGCUGUGGAUAGACUGCC, the self-cleavage came out at 0.13.

In the case of GGCAAAGCACAACAAAGCGUGGCAAAGUGGCUGUGGCUAGACUCGC, the self-cleavage was 0.06.

Take GGCAAAGCUCAACACAACGUGGCAAAGUGGGUGUGGCUAGGCUGCC: the self-cleavage is 0.02.

As for GGCAAAGCUCAACACAGCGUGGCAAAGUGGCUGAGGAUAGACUGCC, the self-cleavage worked out at 0.06.

As for GGCAAAGCUCAACACAGCGUGGCAAAGUGGCUGACGCUAGACUGAU, the self-cleavage was determined as 0.02.

For GGCAAAGCUCAACACAGCGUGACAAAGUGGAUGUGGCUAGACUGCC, the self-cleavage was 0.1.

Regarding GGCAAAGCCCAACACAGCGUGGCAAAGUGGCUGCGGCUAUACUGCC, the self-cleavage worked out at 0.01.

Take GGCAAAGCUCAACACAGCGUUGCAAAGUGGCGGUGGCUAGACUGCC: the self-cleavage is 0.03.

As for GGCAAAGCGCAACAUAGCGUGGCAAAGUGACUGUGGUUAGCCUGCC, the self-cleavage came out at 0.02.

As for GGCACUGCUCAACACAUCGUCGCGAAGUGGCUGCGGCUAGACUGCC, the self-cleavage was 0.08.

Consider GGCAAAGCUCAACACAGCGUGGCAAAGUUGCUGGGGCUAGCCUGCC, for which the self-cleavage came to 0.01.

With GGCAAAGCUCAACACAGCGUCGCAAAAUGGCUGUGGCUAGACUGCC, the self-cleavage turned out to be 0.07.

Turning to GGCAAAGCUCAACACAGCGUGGCAAAGUCGCUCUGGCUACACUGCC, the self-cleavage is 0.05.

As to GGCAAACAUCAACACACCGUGGCAAAGUGGUUGUGGCUAGACUGCC, the self-cleavage is 0.22.

As for GGCAAAGCUCAACACAACGUGGCAAAGUGGCUGUGGCUAGAAUGCC, the self-cleavage was determined as 0.04.

On to GGCAAAGCUCAACACAGCGUGUCAAAGUGGCUGUGGCUAGACCGCC, for which the self-cleavage was 0.17.

For the variant GGCAAAUCUCAACAUAGCGUGGCAAAGUGGCUGUGGCUAGACAGCC, the self-cleavage turned out to be 0.44.

On to GGCAAAGCUCAACACAGCGUUUCAAAGUGGCUGUGGCUAGACAGCC, for which the self-cleavage is 0.21.

Regarding GGCAAAGCUCAACACAGCGUGGCAAAAUGGCUAUGGCUAGACAUCC, the self-cleavage came to 0.04.

The record behind these values is the RNAGym collection of RNA variant scans (doi:10.7554/elife.90254).
